T1: UNK ZnF1-6 (called full-length) (human, UniProt Q9C0B0 30-357)
T1 sequence: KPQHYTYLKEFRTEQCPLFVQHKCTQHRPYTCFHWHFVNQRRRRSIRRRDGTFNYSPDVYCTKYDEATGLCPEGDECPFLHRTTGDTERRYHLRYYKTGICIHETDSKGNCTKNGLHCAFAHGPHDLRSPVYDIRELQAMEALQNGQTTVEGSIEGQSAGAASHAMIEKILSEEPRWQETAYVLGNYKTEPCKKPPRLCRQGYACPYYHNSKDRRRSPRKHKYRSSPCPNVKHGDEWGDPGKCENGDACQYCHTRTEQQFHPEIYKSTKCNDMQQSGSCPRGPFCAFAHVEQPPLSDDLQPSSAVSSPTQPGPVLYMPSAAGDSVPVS

B1: chr5:148442723:148442824:+|3pUTR|ENSG00000145868|unk|FALSE|unique (ssRNA)
RNA: GGGAGUUCUACAGUCCGACGAUCUUAUGAGCUUAAAAAAAAGUGAGUUUGAGAGGGAAAUGGAAAAGUUUCCAGAGUAUUUCUAGUAAUUUAUUUCCACAUUGAAUUGUGUAUAUGCUUUAUCUUGAAUAUAAAAUAAAAGUUCAACAGAGGAUUGAGCAUCA
B2: chr14:94062441:94062542:-|CDS|ENSG00000089737|msi1|total|mutant (ssRNA)
RNA: GGGAGUUCUACAGUCCGACGAUCCCUCCAAGUAACACCGAAGCACCACCUGGAGAGACCAGAACUGAGGCCGGAGCUGAGACCCGAUCACCAGGCAAGGCUGAAGCUGAGUCUGAUGCAUUGCCUGACGAUACUGUAAUUGAGCAACAGAGGAUUGAGCAUCA
B3: chr12:130875966:130876013:+|3pUTR|ENSG00000132341|msi1_unk|total|mutant (ssRNA)
RNA: GGGAGUUCUACAGUCCGACGAUCGAUGAGGAUGAUGACCUGUGAGAAUGAAGCUGGAGCCCAGCGUCAGAAGUCCCGUUUUACCGGCAGCUGUCCUGUGAUGUCAGCGGUGCAGCGUGUGUGCCACCUCAUUAUUAUCCCGCUCAACAGAGGAUUGAGCAUCA
B4: chr2:42328916:42329027:+|CDS|ENSG00000143924|unk|FALSE|unique (ssRNA)
RNA: GGGAGUUCUACAGUCCGACGAUCAGAAGGAUCUGAUGGGACAGAUAUCAAUGCACUGGUGCGAUCCCACAAUAGAAAGGUGAUAGCUGUUGCCGAUGACUUUUGUAAAGUCCAUCUGUUUCAGUAUCCCUGCUCCAAAGCAAACAACAGAGGAUUGAGCAUCA
B5: chr2:218454035:218454136:-|3pUTR|ENSG00000135913|msi1|FALSE|unique (ssRNA)
RNA: GGGAGUUCUACAGUCCGACGAUCGAGAUUUCUUCACACAGUAUGUUCAUCAUAUAUCAUCAUCAUUAUUAUGGUGGUAAAGAUAGAAUCUUUUUUCUUUUUUGUCAUUCUGCCAUGGAGCAGCAUUACCCUAAUGGAUUGCAACAACAGAGGAUUGAGCAUCA
B6: chr5:150401636:150402250:-|three_prime_utr|ENSG00000019582|control|control|control (ssRNA)
RNA: GGGAGUUCUACAGUCCGACGAUCCUGCUGCCCAAUCUCCAUCUGUCAACAGGGGCGUGAGGUCCCAGGAAGUGGCCAAAAGCUAGACAGAUCCCCGUUCCUGACAUCACAGCAGCCUCCAACACAAGGCUCCAAGACCUAGGCCAACAGAGGAUUGAGCAUCA

Some of the results follow.

The test deals with T1, UNK ZnF1-6 (called full-length). Nature of the test: nsRBNS (natural sequence RNA bind-n-seq); RBNS binding buffer (assumed for nsRBNS): 25 mM Tris pH 7.5, 150 mM KCl, 3 mM MgCl2, 0.01% Triton X-100, 500 ug/ml BSA, 20 U/ml SUPERase-In, 4 C; UNK is unkempt and MSI1 is Musashi-1; names of the RNAs are library labels; protein concentration not given here; high values mean tight binding.
B1 came in with a binding signal of 1.07 enrichment R.

Turning to B2, the binding signal is 0.618 enrichment R.

Regarding B3, the binding signal worked out at 0.733 enrichment R.

As to B4, the binding signal amounted to 0.424 enrichment R.

Consider B5, for which the binding signal was determined as 0.64 enrichment R.

For B6, the binding signal was 0.69 enrichment R.

The values are drawn from publication PMC12136788.
